Data from the supplement of paper PMC12632987.
Whole data set: some 4,500 sequences, median “median log2 fold change of GCK-ALFA target abundance (FLAG IP / Myc IP barcode read proportion)” near 0.078, cut for the lowest 2% near -0.6. Some of the results follow.

B1: GBRAP_137_3637 (protein)
chain: PNVTITKETIDDLVKIEVEFDDPEKAEEVAELIEDVAVEKGALAISIEINEDGTLEAEIWVPKEKAEALIKALVERLKKEFNATVTIIDKDTGEVKTIKA
B2: GBRAP_128_3266 (protein)
chain: MNPEIVAYANEFVEKLINSDKEEAKKIAEELMEKLKTLSDEEVEQFVEEIEKNLDKLSVEHLEILADAAEENRDKFSPEKANLVAGLAVEALNVAEEKEE
B3: GBRAP_9_7134 (protein)
chain: REELVKKMAEIAKEMIEDIKEAVPELTEEQAEEFKKKVEDLKAELLADKTATPEEIAEKFKALIKEIEERVKKIVDPELAKIVEAIALTAIEEVDEAAEE
B4: GBRAP_160_4480 (protein)
chain: SEKVREAAEELRRDVEEVLEESKDLSPEQLTLAVAVEVGANLMEFSSEGKINDEQEDIVIEAMDRIRQLGKEKKDASVEEVKAEIRKIVEEMVRRILEAA
B5: GBRAP_184_5311 (protein)
chain: ATRHVVIEADTAEAAIAQIDAAVAAARAAGAKLALTLLLRNVDVEGFRAVADALAAARDAGLLEDALVHLLDEKSEEEIDAFVAAADAAGVRLVVALPEE
B6: GBRAP_160_4761 (protein)
chain: KEKLKKLKEEIEEIFEEHLEMLKEVPKEEAPTIVRGAMGEVLMEVFSSEAASEELEEKIGEIADRAEAEAEANRDAPVEYHIEILERAREEILKLIEEEI
B7: GBRAP_160_4003 (protein)
chain: SEEIKKLIEEIRALVEETKAWMEGLSPAERLTLVRGMVGEIIQLAIESPAVSDETEDKIAEIGDATVAEVEANADASLETWRAILDDMLAKIEKLIESDA
B8: GBRAP_52_6153 (protein)
chain: ARERAREYAEAFVAAVKAGDEERARAIMEEIAATLNDEEIELFLEEVARLVEGLTPEERERVVEAVLEFEDIAVAAGHDEELLSYHTARVAGAAYDALQK
B9: GBRAP_160_4816 (protein)
chain: MEKVEELLKEAEEDLLDTAEASKDLPIEDRAALLRAEGYTSILELKEELNLSDETEDKLVAIVDELVARLLANPDLTPEEVLALVKEAYEKMKKIVLEEA
B10: GBRAP_80_6757 (protein)
chain: MEEELEKALEELKELDPELGERLREVLERARAAGVPVETILRYVEALVELAKLDLELAKKIANEAIEELEEALAAGDLEAAIGTLVDYTSEALLKVEELE
B11: GBRAP_160_4444 (protein)
chain: SEEAEKLKKEIKEELEEALEMMKGQDLEERLAILRVTRGNIILIAEESEIMTDEDIEKIDEIMEELIEWVEENPDLTEEELKAALEEALKKIFEIIDEAE
B12: GBRAP_177_5015 (protein)
chain: LTLEELRAMIADPNTTAKEAFEALTEAAPAISAEEAAELLAEVVRTKELDEEAYEAAAKAILTLSKVQGLSLAEVIGYLIEHVEAEKVEKILEAIAKVED
B13: GBRAP_160_4428 (protein)
chain: SEKLKKAKEKIEEIIEETVEMMKGQSAEERQVLVRVARGEIILELEELGLLTDEVDEVIDEEFDEIVEYIAENPDISDEELRELLEEAREKILKELEKVS
B14: GBRAP_52_5995 (protein)
chain: SAARIEAVAREIVALVLAGDREGARALIRKAFRELSDEEIVEMVRLATRLLMEDPRATDEDIRTFIDLVLDTAEEEGLDEETIADIIGAIATAIKEAELK
B15: GBRAP_160_4729 (protein)
chain: SMELEALAKEFKKLFLEAVELSENESKENKNAIWEGAAGEAIMMAFENPSLTDEQEDAVAKIMDELVKKLKENFDASLEEKKKIVEEMIEKLLKELKEIA
B16: GBRAP_128_3455 (protein)
chain: SVEEVRAWTRAVMEEVKKADDEEARRLFEELAARLTGLSLEEVEAAVEVIKEMLPELTPEKLELLAEVFREARPRFTPEKAALVADVASDALLLAEEKEE
B17: GBRAP_83_6922 (protein)
chain: KEEITVAANSDNIEEAFDAAIDLHKNEGYEVSIDVIVKKEDIEKLLKAFKKLAEEGVETKLEILLLGVTEEEAEELEKKLKEIAKEYGVNIEVEVTAVKL
B18: GBRAP_160_3997 (protein)
chain: EEEIEKLKEEIEEILEETLELAKGEDAANRLAIVRTMGGEILLELEESGIVSDEAEEEIDKILDELAATVEANPDMTDEELKELLEETLEKIKKVLEKHS
B19: GBRAP_128_3362 (protein)
chain: VDEAFLAEVRALAEAIIASSVEEARELARRIVELMLTASDEEREAAVEIVLELLPKLSAEKLDVLADVIREQLPRADAYKRELLADVQVEALNEAEELEE

What follows are binders tested against GABARAP, O95166 (assay: median log2 fold change of GCK-ALFA target abundance (FLAG IP / Myc IP barcode read proportion) (log2 ratio); each designed protein is fused to an ALFA-tag nanobody in HEK293 cells to bring the named protein to FLAG-tagged glucokinase (GCK); Myc marks an untargeted standard; higher = target protein stabilised (more abundant)). Conditions: target protein: 3xFLAG-MCP-GCK-ALFA reporter; HEK293 landing pad (RPLP).
Sequence of GABARAP, O95166 (O95166 whole entry, the tested form may be a part): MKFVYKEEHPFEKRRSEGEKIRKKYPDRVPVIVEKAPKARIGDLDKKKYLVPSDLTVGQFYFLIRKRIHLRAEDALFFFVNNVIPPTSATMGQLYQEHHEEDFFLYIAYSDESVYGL
In short: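 An ALFA-nanobody-fused binder library was recombined into HEK293 landing-pad cells and induced with 2 μg mL^−1 doxycycline. Cells were transfected with a plasmid expressing a FLAG-tagged target and a Myc-tagged standard. After 48 h, lysates underwent anti-FLAG and anti-Myc immunoprecipitation, and circular RNA barcodes were reverse transcribed, amplified and sequenced. Target abundance is the per-binder median log2 ratio of FLAG to Myc barcode read proportions. Barcodes needed ≥10^−7 proportion in both replicates, binders ≥3 barcodes per replicate, and a 10^−6 pseudocount was added; the two replicates were pooled.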
With B1 the “median log2 fold change” value was -0.21.
B2 was tested, and the “median log2 fold change” value was 0.0174.
In the case of B3, the “median log2 fold change” value is reported as 0.169.
With B4 the “median log2 fold change” value was 0.0283.
B5 was tested, and the “median log2 fold change” value was -0.186.
For B6, the “median log2 fold change” value was -0.11.
For B7, the “median log2 fold change” value was 0.00203.
B8 was tested, and the “median log2 fold change” value was -0.742.
B9 was tested, and the “median log2 fold change” value was 0.0572.
B10 was tested, and the “median log2 fold change” value was 0.105.
With B11 the “median log2 fold change” value was -0.094.
For B12, the “median log2 fold change” value was 0.149.
In the case of B13, the “median log2 fold change” value is reported as 0.0554.
With B14 the “median log2 fold change” value was -0.964.
With B15 the “median log2 fold change” value was -0.015.
B16 was tested, and the “median log2 fold change” value was 0.248.
For B17, the “median log2 fold change” value was 0.108.
B18 was tested, and the “median log2 fold change” value was -0.418.
For B19, the “median log2 fold change” value was -0.496.
